Reference: paper PMC4336329 (PLoS ONE, 2015)
Out of some 310,000 compounds screened, about 14,000 (4.5%) showed an effect of 50% or more. The effect is printed as a negative number. Some of the results follow.

biological target: human ether-à-go-go-related gene (hERG) potassium channel (human, UniProt Q12809); assay: primary screen, population patch clamp on CHO cells stably expressing hERG
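Also: peak tail current of the secondary pulse compared with the same well before compound.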

Sequence of human ether-à-go-go-related gene (hERG) potassium channel (Q12809 whole entry, looked up): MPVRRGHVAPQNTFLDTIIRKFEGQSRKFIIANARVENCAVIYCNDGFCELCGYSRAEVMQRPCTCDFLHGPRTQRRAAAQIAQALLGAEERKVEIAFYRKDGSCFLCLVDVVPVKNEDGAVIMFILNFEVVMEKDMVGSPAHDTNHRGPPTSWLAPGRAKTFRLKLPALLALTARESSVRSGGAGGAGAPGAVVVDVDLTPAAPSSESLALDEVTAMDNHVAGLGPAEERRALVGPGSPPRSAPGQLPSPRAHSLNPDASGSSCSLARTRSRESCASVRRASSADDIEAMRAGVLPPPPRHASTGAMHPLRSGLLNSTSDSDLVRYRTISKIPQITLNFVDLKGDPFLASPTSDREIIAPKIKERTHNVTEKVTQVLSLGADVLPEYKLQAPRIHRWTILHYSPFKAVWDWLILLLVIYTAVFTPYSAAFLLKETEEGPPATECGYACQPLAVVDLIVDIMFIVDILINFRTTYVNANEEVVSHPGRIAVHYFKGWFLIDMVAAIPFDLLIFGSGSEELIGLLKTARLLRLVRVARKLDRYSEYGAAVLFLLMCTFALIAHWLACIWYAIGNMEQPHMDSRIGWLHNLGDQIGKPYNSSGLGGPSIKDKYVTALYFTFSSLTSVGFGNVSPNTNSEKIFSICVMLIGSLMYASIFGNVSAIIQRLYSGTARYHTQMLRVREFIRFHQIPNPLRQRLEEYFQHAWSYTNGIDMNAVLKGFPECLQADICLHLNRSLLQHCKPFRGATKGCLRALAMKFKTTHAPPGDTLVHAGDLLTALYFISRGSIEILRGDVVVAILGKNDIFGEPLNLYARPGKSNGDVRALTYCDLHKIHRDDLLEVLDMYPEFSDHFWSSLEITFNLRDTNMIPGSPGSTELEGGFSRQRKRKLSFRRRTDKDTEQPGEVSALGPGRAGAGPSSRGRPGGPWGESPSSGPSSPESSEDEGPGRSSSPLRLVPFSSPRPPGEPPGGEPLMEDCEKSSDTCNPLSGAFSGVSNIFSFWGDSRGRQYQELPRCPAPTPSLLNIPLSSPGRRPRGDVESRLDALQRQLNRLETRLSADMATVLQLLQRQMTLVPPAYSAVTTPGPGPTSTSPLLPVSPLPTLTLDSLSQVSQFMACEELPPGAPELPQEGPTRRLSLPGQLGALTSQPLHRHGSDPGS

Structure (SMILES)	hERG current change (%, negative = inhibition) at 10uM
Cc1cc2nc3c(c(C(F)(F)F)n2n1)CCCC3	15.9%
CCN(CC)CCN(C(=O)/C=C/c1cccs1)c1nc2ccc(C)cc2s1.Cl	-10.8%
COCc1cc(C)c(C#N)c(=S)[nH]1	1.94%
CC1Cc2ccccc2N1C(=O)Cn1cc([N+](=O)[O-])cn1 (centres unmarked)	-24.2%
CC1(C)CC(=O)C(C(=O)/C=C/c2ccco2)C(=O)C1	13.8%
COc1ccc(NC(=O)Cn2nnc(C(=O)NCc3cccs3)c2N)cc1OC	11.1%
O=C1c2ccccc2C(O)(c2ccccc2)N1c1ccncc1 (centres unmarked)	8.82%
COc1cc(C(C)=O)ccc1Oc1ccc(S(=O)(=O)N2CCOCC2)cn1	-1.9%
[O-]/C(=C(\C(=S)NCc1ccco1)[n+]1ccccc1)c1ccccc1Br	-0.616%
CCN(CCCCCN(C)C)Cc1cc2ccccc2o1.Cl	9.99%
COC(=O)c1ccc(NC(=S)NC2CCc3ccccc32)cc1 (centres unmarked)	-13.9%
CNC(=O)N(O)C1N(/N=C/c2c(F)cccc2Cl)C(=S)SC1(C)C (centres unmarked)	18%
Cc1ccc(C(=O)N/C(=C\c2ccc([N+](=O)[O-])cc2)C(=O)NCCc2ccccc2)cc1	-33.8%
CC(=O)N1C(=O)NC2=C(C(=O)CCC2)C1c1cccc([N+](=O)[O-])c1 (centres unmarked)	24.2%
O=C(CSc1ccc(Br)cc1)Nc1ccccc1Oc1ccccc1	3.02%
CC(C)NC(=O)N1CCCN(c2nc3ccc(Cl)cc3s2)CC1	-42.1%
O=C(Nc1cccc(F)c1)Nc1ccc2c(c1)CCC2	24.6%
O=C(O)C1C2C=CC(C2)C1C(=O)NC1CCN(Cc2ccccc2)CC1 (centres unmarked)	-1.32%
O=[N+]([O-])c1cccc(-c2cnc3ccccc3n2)c1	-0.217%
CC(C(=O)Nc1cccc(S(=O)(=O)N2CCOCC2)c1)N1CCN(C)CC1 (centres unmarked)	-5.23%
O=C(NCc1ccc2c(c1)OCO2)C(=O)NCC1OCCN1S(=O)(=O)c1ccc(Cl)cc1 (centres unmarked)	-28.9%
COc1ccc(NC(=O)C2Cc3cc(S(=O)(=O)N4CCCCC4)ccc3N2C(C)=O)cc1Cl (centres unmarked)	5.58%
CC(C)NS(=O)(=O)c1ccc(NC(=O)Cc2cccs2)cc1	15.9%

Structure (SMILES)	hERG current change (%, negative = inhibition) at 10uM
CC1CN(C(=O)c2ccc(OC3CCN(Cc4ccccn4)CC3)cc2)CCN1C (centres unmarked)	-2.06%
COc1ccc(C(=O)N/C(=C\c2ccc3c(c2)OCO3)C(=O)NCCc2nc3ccccc3[nH]2)cc1	-39.4%
CCC(C)NCCOc1cc(C)cc(C)c1C.O=C(O)C(=O)O (centres unmarked)	6.06%
COCC(C)n1c(SCC(=O)NC(=O)Cc2ccccc2)nc2ccccc2c1=O (centres unmarked)	2.4%
O=C1N=c2ccccc2=C1c1c(O)n(-c2cccc(F)c2)[nH]c1=O	2.11%
CCc1nnc(NC(=O)CSc2nc(C3CCCCC3)nc3ccccc23)s1	-11.3%
O=C(COC(=O)c1ccc(F)cc1)Nc1cc(S(=O)(=O)N2CCOCC2)ccc1N1CCCC1	-28.2%
CCOc1cc(C(c2c(O)nc(SC)[nH]c2=O)c2c(O)nc(SC)[nH]c2=O)ccc1O	19.4%
C=CCNC(=O)c1sc(SC)cc1-c1ccc(Cl)cc1	-20.4%
Cc1ccc(CC2SC(N)=NC2=O)cc1 (centres unmarked)	19.5%
COC(=O)c1cc(S(=O)(=O)N(C)Cc2ccco2)c[nH]1	-0.617%
Fc1ccccc1CNCCc1c[nH]c2ccccc12.O=C(O)C(=O)O	-8.28%
COc1cc(N2C(=O)C=CC2=O)c(OC)cc1Cl	11.9%
Cc1cccc(C)c1NC(=O)CSc1nc(C2CC2)nc2ccccc12	-1.55%
COc1ccccc1OCC(=O)NCCc1nc2ccccc2[nH]1	2.13%
Cn1c(C(=O)Nc2ccccc2)cc2sccc21	-12.8%
CCn1c(/C=C/c2ccccc2[N+](=O)[O-])nc2ccccc2c1=O	9.59%
COc1cccc(=O)c2c(C)n(-c3cc(C)cc(C)c3)c(C)c12	-10.4%
C=CCSc1nc(NC)c2sccc2n1	-30%
CCCOC(=O)c1ccc(Oc2c(-c3ccc(O)cc3O)n[nH]c2C)cc1	-2.68%
COc1cc(OC)c(NC(=O)c2c(-c3ccccc3)noc2C)cc1Cl	-4.34%
Cc1ccc(S(=O)(=O)N2CCCC(C(=O)NC3CC3)C2)cc1 (centres unmarked)	12.4%
Cc1csc2c(=O)sc(NC(=O)c3ccc(F)cc3)nc12	5.93%

Structure (SMILES)	hERG current change (%, negative = inhibition) at 10uM
O=S(=O)(c1ccc2ccccc2c1)N1CCC(c2nc(-c3ccncc3)no2)CC1	-18.4%
CCCCc1cc(=O)oc2cc(OCc3nn[nH]n3)c(Cl)cc12	9.64%
COc1ccccc1C1CCCN1Cc1nc(-c2cc3c(cc2Cl)OCO3)oc1C (centres unmarked)	-45%
CCOC(=O)N1CCN(C(=O)c2cc3c(s2)-c2c(C)cccc2OC3)CC1	-15.5%
CCn1c(=O)n(CC)c2cc(N)ccc21.Cl	36%
Cc1cccc(NC(=O)c2cccc(C(F)(F)F)c2)c1	-1.53%
Cc1cc(C)cc(N2C(=O)CC(n3ccnc3)C2=O)c1 (centres unmarked)	5.42%
CCn1c(C)nc2cc(C(=O)N/N=C/c3ccc(N4CCOCC4)cc3)ccc21	7.11%
CCCCC(=O)Nc1cc(OCC)c(NC(=S)NC)cc1OCC	-3.83%
Cc1ccccc1C(=O)N1CCC(C(=O)N(C)CCOc2ccccc2)CC1	9.06%
CCOCCCNC(=O)C(c1ccc(C)cc1)N(Cc1ccc2c(c1)OCO2)C(=O)c1ccccn1 (centres unmarked)	-17.1%
CC(C)O.CCc1nnc(NS(=O)(=O)c2ccc(NC(=O)C(c3ccccc3)c3ccccc3)cc2)s1	2.36%
Clc1ccc(Cn2nnc(-c3ccccc3)n2)cc1	12.8%
O=c1c2cn[nH]c2[nH]c(=S)n1-c1cccc2ccccc12	2.95%
CC(C)(C)c1ccc(C(=O)COC(=O)CN2C(=O)NC3(CCCC3)C2=O)cc1	3.92%
NNC(=O)c1ccc(N2CCc3ccccc32)c([N+](=O)[O-])c1	-3.16%
N#C/C(=C\c1ccccc1)C(=O)NCc1ccc(F)cc1	6.17%
CNC(=O)C1=C(C)Nc2nc3ccccc3n2C1c1ccc(F)cc1 (centres unmarked)	-6.47%
COc1ccc(N(C(=O)CNC(=O)c2ccco2)C(C(=O)NC2CCCCC2)c2cccnc2)cc1 (centres unmarked)	1.4%
Br.CCOc1ccc(C2=CS/C(=C(\C#N)c3nnc4n3CCCCC4)N2CC)cc1	-47.3%
COc1cccc(C(=O)NC2CCCc3c2cnn3-c2cc(C)cc(C)c2)c1 (centres unmarked)	6.79%
Cc1ccc(-c2nc3cc(N)ccc3o2)cc1	16.3%
Cc1ccc(C(=O)NC2CCN(S(=O)(=O)c3ccc(C)cc3)CC2)cc1	19.2%

Structure (SMILES)	hERG current change (%, negative = inhibition) at 10uM
O=C(COc1ccccc1)NC(=S)Nc1cccc([N+](=O)[O-])c1	15.3%
O=C(O)c1cc(-c2ccccc2)on1	13.3%
CC(/C=C/C1(O)C(C)CC(O)CC1(C)C)OC1OC(CO)C(O)C(O)C1O (centres unmarked)	9.31%
O=C(Nc1ccc(N2CCOCC2)cc1)C1CCCCN1S(=O)(=O)c1ccccc1 (centres unmarked)	-0.469%
Cc1ccsc1CN(C)CC(=O)NCC(=O)Nc1ccc(F)cc1	-11.3%
CCN(CC)CCn1c2c(c(SCC(=O)Nc3cc(C)on3)nc1=O)CCCC2	-25%
COc1ccccc1NC(=O)N1CCC(C(=O)c2ccc(Cl)cc2)CC1	-72.7%
O=C(c1cccc(F)c1)N1CCCC(C(=O)N2CCCC2)C1 (centres unmarked)	19.8%
CCOC(=O)C1(Cc2ccccc2C(F)(F)F)CCN(C(=O)c2cc(C(C)=O)n[nH]2)CC1	-57.2%
CN1C(=O)N(C)C(=O)C2(Cc3cc([N+](=O)[O-])ccc3N(C)C2c2ccccc2)C1=O (centres unmarked)	-17.6%
Nn1c(SCC(=O)Nc2nccs2)nnc1C1CC1	6.89%
Cc1cc(=O)oc2cc(OCC(=O)N3CCCc4ccccc43)ccc12	-0.569%
Cc1ccc(NC(=O)COC(=O)[C@@H]2CCCN2C(=O)c2cccs2)cc1S(=O)(=O)N(C)C	-23.8%
O=C(Nc1cccs1)Nc1ccccc1Br	-1.78%
CC(CN)(NS(=O)(=O)c1ccccc1)c1ccccc1 (centres unmarked)	16.6%
CC(=O)c1ccccc1OC(=O)CCN1C(=O)C2C3C=CC(C4CC34)C2C1=O (centres unmarked)	-24.4%
FC(F)(F)c1cnc(N2CCSCC2)c(Cl)c1	8.66%
CNC(=O)c1ccc2snnc2c1	-5.72%
Cl.c1ccc(Cn2nnnc2C(c2cccs2)N2CCCCCC2)cc1 (centres unmarked)	6.58%
O=C(c1ccc(C(F)(F)F)cc1)C1CCCN(Cc2cccn2-c2ncccn2)C1 (centres unmarked)	-80.3%
